Data reported in the supplement of paper PMC10126150.
Values marked as one replicate rest on one cluster of the flow cell; about a third of the high ones do not repeat.

Test system: ATP
Assay: switch fluorescence ratio, 500 uM ATP over buffer (Cy3 cluster intensity, sum of 5 cycles each) (fold (ratio)); higher = stronger signal-on switching upon ATP binding; sequences stand for … in TCGTCGGCAGCGTCAGATGTGTATAAGAGACAGTTTTTTTTTTTTTTTTTTTTTTTTT…TC
Details: aptamer strand: ATP DNA aptamer (quencher-CACCTGGGGGAGTATTGCGGAGGAAGG + anchor), 100 nM annealed; ATP concentration: 500 uM; one replicate
Method in brief: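 Clusters with intensities outside 100-1000 RFU were excluded. The remaining Cy3-labelled switching-strand clusters on a modified Illumina MiSeq flow-cell had been annealed to 100 nM quencher-labelled ATP aptamer and imaged in selection buffer, then after 15 min with 500 uM ATP at 22 °C, for five cycles separated by NaOH stripping and re-annealing. The fluorescence ratio, averaged per switch-domain sequence, is each cluster's summed target-cycle Cy3 intensity over its summed buffer-cycle Cy3 intensity.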
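Note: ATP exposure 15 min at 22 °C before imaging.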

Sequence AAACGGAGAA has a switch fluorescence ratio of 1.03.

With GGCGAGCGGA the switch fluorescence ratio was 0.967.

Sequence GGGACGTACA has a switch fluorescence ratio of 1.68.

Sequence CAGGCGATCG has a switch fluorescence ratio of 1.05.

In the case of GATTTTATTC, the switch fluorescence ratio is reported as 0.994.

For TGTCCGGCCT, the switch fluorescence ratio was 0.962.

In the case of CCGTATTCTT, the switch fluorescence ratio is reported as 1.03.

For AGCATGAGTT, the switch fluorescence ratio was 1.02.

Work on AAGCAACTGC yielded a switch fluorescence ratio of 1.11.

In the case of GATTAGGTAA, the switch fluorescence ratio is reported as 0.939.

Work on TATTGCCTCG yielded a switch fluorescence ratio of 1.02.

Sequence CGTTACCCAC has a switch fluorescence ratio of 1.51.

Work on CGCGGCATGG yielded a switch fluorescence ratio of 1.16.

Sequence CGCAGCCCGA has a switch fluorescence ratio of 1.22.

In the case of GCTTCTAATA, the switch fluorescence ratio is reported as 1.

TAATTCAAGA was tested, and the switch fluorescence ratio was 0.967.

CTGCGAGGCG showed a switch fluorescence ratio of 1.03.

For ACGGGAATAT, the switch fluorescence ratio was 1.06.

In the case of CACATTTGCA, the switch fluorescence ratio is reported as 1.02.

For GCCTAGTTTG, the switch fluorescence ratio was 0.964.

Sequence CCAGGATGCC has a switch fluorescence ratio of 0.979.

AGGTCGA gave a switch fluorescence ratio of 1.02.

Sequence TTTGGATGCA has a switch fluorescence ratio of 1.06.

GGTGTCCCTT showed a switch fluorescence ratio of 1.04.

ACCCTGTATA was tested, and the switch fluorescence ratio was 0.992.

For ATTACATGTG, the switch fluorescence ratio was 0.987.

CGGGGGAATA was tested, and the switch fluorescence ratio was 1.02.

GCACACGTTT showed a switch fluorescence ratio of 1.01.

In the case of GACGTTACGT, the switch fluorescence ratio is reported as 1.15.

Sequence GCCGCCACGG has a switch fluorescence ratio of 1.04.

TGAAGCAGTA was tested, and the switch fluorescence ratio was 1.24.

For GTGGGAGAG, the switch fluorescence ratio was 0.967.

TCGGACAGAC was tested, and the switch fluorescence ratio was 1.28.

In the case of CTTCAAGAT, the switch fluorescence ratio is reported as 1.19.

AAGATCAATC was tested, and the switch fluorescence ratio was 1.04.

For GTGCCGGTTC, the switch fluorescence ratio was 1.01.

GAGTCGGTTG was tested, and the switch fluorescence ratio was 0.984.

TACGTTCTTA gave a switch fluorescence ratio of 0.984.

CTTAACGCCG gave a switch fluorescence ratio of 1.04.

In the case of GTTAATCGGG, the switch fluorescence ratio is reported as 1.01.

Work on TGAGGCTGAA yielded a switch fluorescence ratio of 0.959.

For TTTGCAGATC, the switch fluorescence ratio was 1.13.

Work on ACATATAGTC yielded a switch fluorescence ratio of 1.06.

With CCGGACTAGA the switch fluorescence ratio was 1.07.

AGATGCTGAG was tested, and the switch fluorescence ratio was 1.

Work on AAAGAGGCGT yielded a switch fluorescence ratio of 1.

GGGGCCGGTA gave a switch fluorescence ratio of 1.04.

In the case of GGCCAGGAA, the switch fluorescence ratio is reported as 1.03.

In the case of GCAGACGCGC, the switch fluorescence ratio is reported as 1.05.

In the case of GCCCGCGG, the switch fluorescence ratio is reported as 1.01.

AGGGTGGTAA was tested, and the switch fluorescence ratio was 1.02.

Sequence GGTTTTACGG has a switch fluorescence ratio of 0.989.

In the case of CGTGTTTTAA, the switch fluorescence ratio is reported as 0.925.

TCCTTGCTT showed a switch fluorescence ratio of 1.01.

Sequence TAGTTTTCTA has a switch fluorescence ratio of 1.

Work on AACGATTTCA yielded a switch fluorescence ratio of 0.952.

TAGGAATGTG was tested, and the switch fluorescence ratio was 1.01.

For CCCATATATT, the switch fluorescence ratio was 1.02.

GACACTTTGA was tested, and the switch fluorescence ratio was 1.01.

TACGCCCGGA showed a switch fluorescence ratio of 1.15.

CAGCTTGGAG was tested, and the switch fluorescence ratio was 1.07.

GATGCGAAGC showed a switch fluorescence ratio of 1.08.

For GGGGTTCTCT, the switch fluorescence ratio was 1.02.

TATCCGCTGT showed a switch fluorescence ratio of 3.24.

Sequence GTTTGTCGTC has a switch fluorescence ratio of 1.04.

CGGCCGATGC was tested, and the switch fluorescence ratio was 1.05.

With CCGTGTCTAG the switch fluorescence ratio was 1.01.

With CTGGTAGCTC the switch fluorescence ratio was 1.22.

ACCGCGGGGC gave a switch fluorescence ratio of 1.4.

ACTATTCAA was tested, and the switch fluorescence ratio was 1.04.

Sequence TAGCCTATCG has a switch fluorescence ratio of 0.996.

With AAACAGCCCG the switch fluorescence ratio was 1.03.

Work on TTTATTGGCA yielded a switch fluorescence ratio of 1.03.

In the case of GCAGGTGAGT, the switch fluorescence ratio is reported as 1.49.

Work on CTCAGGCTCC yielded a switch fluorescence ratio of 1.21.

TTTTCTAACG was tested, and the switch fluorescence ratio was 1.06.

For TCCGCCGTGT, the switch fluorescence ratio was 1.12.

With CAGTTTGGCT the switch fluorescence ratio was 0.968.

TCGAATAATA showed a switch fluorescence ratio of 1.02.

TCGACTTACC gave a switch fluorescence ratio of 1.23.

For CATACACAAG, the switch fluorescence ratio was 1.04.

TCCCCGTATG was tested, and the switch fluorescence ratio was 1.18.

In the case of TGCCTTATCG, the switch fluorescence ratio is reported as 1.02.

Sequence TCTTGAAGCA has a switch fluorescence ratio of 1.

With CTGGGTAGCT the switch fluorescence ratio was 1.01.

TCGTCCACA showed a switch fluorescence ratio of 1.18.

With GTTTCAATCG the switch fluorescence ratio was 1.01.

Sequence GCATGTACTG has a switch fluorescence ratio of 1.05.

ACGCTACAGG showed a switch fluorescence ratio of 1.43.

ACTACAAGT was tested, and the switch fluorescence ratio was 1.03.

Work on GGTCAGAGCG yielded a switch fluorescence ratio of 1.01.

Work on AAATGTCTAC yielded a switch fluorescence ratio of 1.04.

With GGACCAATTG the switch fluorescence ratio was 1.02.

For TTTTAGACGG, the switch fluorescence ratio was 0.977.

Work on TCTGGGCAAT yielded a switch fluorescence ratio of 5.08.

TGCTGGGAGT gave a switch fluorescence ratio of 0.981.

In the case of GCCCCTGCAC, the switch fluorescence ratio is reported as 1.03.

Sequence CGCGCCCTGC has a switch fluorescence ratio of 1.08.

In the case of GTCAATCCCC, the switch fluorescence ratio is reported as 1.13.

In the case of GCGGTCTAGC, the switch fluorescence ratio is reported as 0.968.

Sequence TAACGGGGAT has a switch fluorescence ratio of 1.06.

AAGAATTAAA showed a switch fluorescence ratio of 1.01.

Work on GGCGCGAAGA yielded a switch fluorescence ratio of 1.

In the case of TAGCTGGA, the switch fluorescence ratio is reported as 1.03.

TTTTCCGAGA showed a switch fluorescence ratio of 0.988.

TACTTTAAAG showed a switch fluorescence ratio of 1.01.

AGTCAAAGTG was tested, and the switch fluorescence ratio was 0.979.

With CGTTGTTTAC the switch fluorescence ratio was 1.07.

CAGTGCGGTT showed a switch fluorescence ratio of 1.

For AACTGTGCAG, the switch fluorescence ratio was 0.969.

CCGTCTTATG was tested, and the switch fluorescence ratio was 0.948.

With AGAGCTAATA the switch fluorescence ratio was 1.07.

CTGAGAGTGA gave a switch fluorescence ratio of 1.01.

TGTGGACCCT gave a switch fluorescence ratio of 1.

For TCTTGCGATC, the switch fluorescence ratio was 1.77.

AAGGCCGGGC showed a switch fluorescence ratio of 0.996.

CCCATTCTTT showed a switch fluorescence ratio of 1.02.

Sequence ATACGATAAG has a switch fluorescence ratio of 1.05.

CCGTGACGGG was tested, and the switch fluorescence ratio was 1.02.

With CGCGGCCAGT the switch fluorescence ratio was 0.969.

In the case of CATGGCAGAG, the switch fluorescence ratio is reported as 1.02.

In the case of AACCAGAGAG, the switch fluorescence ratio is reported as 1.06.

GGACTATAGA gave a switch fluorescence ratio of 1.03.

Sequence CTCGTAATGG has a switch fluorescence ratio of 1.72.

For GTCATAAAC, the switch fluorescence ratio was 0.944.

Sequence GATGGGAGAT has a switch fluorescence ratio of 1.04.

With CCGGCTTGT the switch fluorescence ratio was 1.01.

ATATTTGCAG was tested, and the switch fluorescence ratio was 0.943.

Work on CAACTCCGTA yielded a switch fluorescence ratio of 1.26.

GCGCCTGACC showed a switch fluorescence ratio of 1.24.

Work on CTCGGCACCG yielded a switch fluorescence ratio of 1.01.

In the case of AAGGAATCTT, the switch fluorescence ratio is reported as 0.989.

Work on ACGTAAGCAC yielded a switch fluorescence ratio of 1.11.

For AAATCTACT, the switch fluorescence ratio was 1.05.

TATTAGCCCC was tested, and the switch fluorescence ratio was 1.04.

Work on GGCAACGGGT yielded a switch fluorescence ratio of 0.979.

For AAGCCTTAG, the switch fluorescence ratio was 1.04.

In the case of ATCGGCAGTG, the switch fluorescence ratio is reported as 1.01.

For GGTCAGTCGT, the switch fluorescence ratio was 1.05.

In the case of CGATACTGCT, the switch fluorescence ratio is reported as 0.991.

In the case of GTCAAAGGAG, the switch fluorescence ratio is reported as 1.

With TCTGTAGTCG the switch fluorescence ratio was 1.02.

AGGCGGGACG was tested, and the switch fluorescence ratio was 0.961.

GGCGAGCACG showed a switch fluorescence ratio of 0.97.

With TCAATCCTAG the switch fluorescence ratio was 1.

In the case of GGGTATGTGC, the switch fluorescence ratio is reported as 1.02.

CGGGTCTTAC was tested, and the switch fluorescence ratio was 1.06.

Sequence ACGCGTTGTA has a switch fluorescence ratio of 1.04.

GTGTATTTCG was tested, and the switch fluorescence ratio was 0.978.

In the case of CATCTATAGT, the switch fluorescence ratio is reported as 1.03.

GCTGAGCATT showed a switch fluorescence ratio of 1.02.

For AGACTATTCA, the switch fluorescence ratio was 1.01.

GAGGGCTCGA was tested, and the switch fluorescence ratio was 1.03.

Sequence CAGTTTGGAA has a switch fluorescence ratio of 1.

TTTGGAGGAC gave a switch fluorescence ratio of 1.01.

For ATCGGCATCT, the switch fluorescence ratio was 1.03.

CTTGGCGTGT gave a switch fluorescence ratio of 1.02.
